{"source": "patent US6344453B1", "about": "“Insecticidal heterocyclic compounds” (priority 1989, dated 2002)"}
{"tested_on": "Nephotettix cincticeps (green rice leafhopper) exhibiting resistance to organophosphorus series insecticides", "test": "Biotest against Nephotettix cincticeps (green rice leafhopper) resistant to organophosphorus-series insecticides, spray on rice seedlings", "conditions": "48 h, read-out: insect mortality", "units": {"mortality at 200 ppm": "%"}}
{"smiles": "CN1CN/C(=N\\[N+](=O)[O-])N(Cc2cnc(Cl)s2)C1", "note": "[Compound 12]", "mortality at 200 ppm": 100}
{"smiles": "N#C/N=C1\\COCCN1Cc1cnc(Cl)s1", "note": "[Compound 3]", "mortality at 200 ppm": 100}
{"smiles": "CN1CN/C(=N\\[N+](=O)[O-])N(Cc2ccc(Cl)nc2)C1", "note": "[Compound 11, 1-(2-chloro-5-pyridylmethyl)-5-methyl-2-nitroimino-hexahydro-1,3,5-triazine]", "mortality at 200 ppm": 100}
{"smiles": "CC(C)c1noc(C(C)N2CN(C)CN/C2=N\\[N+](=O)[O-])n1", "note": "(stereo not drawn) [Compound 40]", "mortality at 200 ppm": 100}
{"smiles": "CN1CN/C(=N\\C#N)N(Cc2ccc(Cl)nc2)C1", "note": "[Compound 17, 1-(2-chloro-5-pyridylmethyl)-5-neath-2-cyanoimino-hexahydro-1,3,5-triazine]", "mortality at 200 ppm": 100}
{"smiles": "N#C/N=C1\\COCCN1Cc1ccc(Cl)nc1", "note": "[Compound 2, 4-(2-chloro-5-pyridylmethyl)-3-cyanoiminomorpholine]", "mortality at 200 ppm": 100}
{"smiles": "CC(C)N1CN(Cc2ccc(Cl)nc2)C(=N[N+](=O)[O-])N(Cc2ccc(Cl)nc2)C1", "note": "[Compound 16]", "mortality at 200 ppm": 100}
{"smiles": "CC(C)N1CN/C(=N\\[N+](=O)[O-])N(Cc2ccc(Cl)nc2)C1", "note": "[Compound 15]", "mortality at 200 ppm": 100}
{"smiles": "CON1CN/C(=N\\[N+](=O)[O-])N(Cc2ccc(Cl)nc2)C1", "note": "[Compound 14, 1-(2-chloro-5-pyridylmethyl)-5-methoxy-2-nitroimino-hexahydro-1,3,5-triazine]", "mortality at 200 ppm": 100}
